These results are taken from patent US9045526B2 (THE REGENTS OF THE UNIVERSITY OF MICHIGAN, priority 2011, dated 2015).

Numbered stars: 1 amine (or outer) side, 2 acyl side, 3 side chain; on linkers, the order of the positions; unused ones are H or OH. Bridge positions count the residues as written; N and C are the ends. Square brackets hold non-standard residues; d marks the D form. Peptide text beside a SMILES is read from it. Dmt = Cc1cc(O)cc(C)c1C[C@H](N)C(=O)O; dPen = CC(C)(S)[C@@H](N)C(=O)O; Aic = NC1(C(=O)O)Cc2ccccc2C1; CH2CH2 = C(C[*:2])[*:1]

One assay has as its target T1, mu-opioid receptor (MOR) (Rattus norvegicus, UniProt P33535).
T1 construct: expressed in transfected cells; host or cells: C6 rat glioma cells (C6-MOR), stably transfected
Briefly: Ki, nM | (MOR). The source says: (§1) Table printed on a drawing sheet, FIGURE 4
Head of the field: Ki, nM | (MOR)
(§2) First copying reader's note: Each result cell holds the value together with its ± error.

Assay [1] addresses T2, delta-opioid receptor (DOR) (Rattus norvegicus, UniProt P33533).
T2 construct: expressed in transfected cells; host or cells: C6 rat glioma cells (C6-DOR), stably transfected
In words: Ki, nM | (DOR).
Text: as §1
Head of the field: Ki, nM | (DOR)
as §2

The next assay addresses DOR (Rattus norvegicus, UniProt P33533). In words: DOR | % max. Particulars: 10 µM.
Another assay deals with KOR (Homo sapiens, UniProt P41145). In words: KOR | % max. Particulars: 10 µM.
Chain of KOR (P41145 whole entry, looked up): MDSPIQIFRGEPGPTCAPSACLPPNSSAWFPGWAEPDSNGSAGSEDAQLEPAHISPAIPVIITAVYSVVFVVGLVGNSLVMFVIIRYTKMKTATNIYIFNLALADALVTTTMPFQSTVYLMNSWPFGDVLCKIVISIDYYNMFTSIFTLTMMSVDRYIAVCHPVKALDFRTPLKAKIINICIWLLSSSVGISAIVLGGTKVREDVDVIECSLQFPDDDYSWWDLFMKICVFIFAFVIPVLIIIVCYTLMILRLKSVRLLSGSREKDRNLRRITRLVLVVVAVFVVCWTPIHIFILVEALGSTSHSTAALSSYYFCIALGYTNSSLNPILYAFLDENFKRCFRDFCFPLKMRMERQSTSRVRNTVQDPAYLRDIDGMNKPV
The target of assay [2] is T3, kappa-opioid receptor (KOR) (Homo sapiens, UniProt P41145).
T3 construct: expressed in transfected cells
T3 sequence (P41145 whole entry, looked up): as above
Briefly: Ki, nM | (KOR).
Text: as §1
Head of the field: Ki, nM | (KOR)
as §2

T1 sequence (P33535 whole entry, looked up): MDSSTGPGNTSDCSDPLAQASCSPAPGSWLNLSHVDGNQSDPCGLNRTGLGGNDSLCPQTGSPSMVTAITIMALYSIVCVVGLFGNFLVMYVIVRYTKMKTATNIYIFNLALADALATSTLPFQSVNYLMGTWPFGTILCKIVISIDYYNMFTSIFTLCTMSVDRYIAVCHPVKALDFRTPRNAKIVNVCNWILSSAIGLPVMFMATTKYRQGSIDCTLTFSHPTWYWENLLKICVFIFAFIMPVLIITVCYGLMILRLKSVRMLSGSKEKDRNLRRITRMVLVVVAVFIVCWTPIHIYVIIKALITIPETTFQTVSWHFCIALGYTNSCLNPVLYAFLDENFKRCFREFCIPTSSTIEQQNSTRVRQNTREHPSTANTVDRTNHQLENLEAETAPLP
T2 sequence (P33533 whole entry, looked up): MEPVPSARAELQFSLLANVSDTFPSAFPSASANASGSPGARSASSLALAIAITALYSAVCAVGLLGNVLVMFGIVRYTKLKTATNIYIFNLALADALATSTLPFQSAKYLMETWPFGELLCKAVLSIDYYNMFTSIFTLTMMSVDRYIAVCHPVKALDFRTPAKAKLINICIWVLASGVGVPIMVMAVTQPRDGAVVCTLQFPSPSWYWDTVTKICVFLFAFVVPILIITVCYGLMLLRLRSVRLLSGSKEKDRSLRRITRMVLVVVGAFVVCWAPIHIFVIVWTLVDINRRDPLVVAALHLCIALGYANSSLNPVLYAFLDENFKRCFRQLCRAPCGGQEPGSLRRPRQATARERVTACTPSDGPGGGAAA
Chain of DOR (P33533 whole entry, looked up): as above

Regarding `Cc1cc(O)cc(C)c1C[C@H](N)C(=O)N[C@@H]1CSCCSC(C)(C)[C@H](C(=O)N[C@H](C(N)=O)[C@@H](C)O)NC(=O)C2(Cc3ccccc3C2)NC1=O` [VRP-21] (H-[Dmt][dC][Aic][dPen]T-NH2; linker 2-4 via CH2CH2; N-terminus assumed), the results for the Ki (at mu-opioid receptor (MOR); in assay [1]) were 1.9 ± 0.3 nM and 2.7 ± 0.3 nM, respectively.

Regarding `Cc1cc(O)cc(C)c1C[C@H](N)C(=O)N[C@@H]1CSCCSC(C)(C)[C@H](C(=O)O)NC(=O)C2(Cc3ccccc3C2)NC1=O` [compound 2, Dmt-c(S-CH2-CH2-S)-[D-Cys-Aci-D-Pen]OH] (H-[Dmt][dC][Aic][dPen]-OH; linker 2-4 via CH2CH2; N-terminus assumed), the “DOR | % max.” value at DOR stood at 0 % max. Besides, the “KOR | % max.” value on KOR was determined as 0 % max.

Turning to `Cc1cc(O)cc(C)c1C[C@H](N)C(=O)N[C@@H]1CSCCSC(C)(C)[C@H](C(=O)N[C@H](C(=O)O)[C@@H](C)O)NC(=O)C2(Cc3ccccc3C2)NC1=O` [VRP-15] (H-[Dmt][dC][Aic][dPen]T-OH; linker 2-4 via CH2CH2; N-terminus assumed), the Ki (as a rule, the equilibrium dissociation constant of an inhibitor or competing ligand from its target) turned out to be 32700 ± 9800 nM in assay [2], 18 ± 3.9 nM on mu-opioid receptor (MOR) and 6.3 ± 1.2 nM in assay [1].

On to `Cc1cc(O)cc(C)c1C[C@H](N)C(=O)N[C@@H]1CSCCSC(C)(C)[C@H](C(=O)N[C@@H](CO)C(N)=O)NC(=O)C2(Cc3ccccc3C2)NC1=O` [VRP-19] (H-[Dmt][dC][Aic][dPen]S-NH2; linker 2-4 via CH2CH2), for which the Ki in assay [2] was found to be 174 ± 13.7 nM; on mu-opioid receptor (MOR), 1.7 ± 0.8 nM; in assay [1] it was 2.7 ± 0.8 nM.

Take `Cc1cc(O)cc(C)c1C[C@H](N)C(=O)N[C@@H]1CSCCSC(C)(C)[C@H](C(N)=O)NC(=O)C2(Cc3ccccc3C2)NC1=O` [compound 1, Dmt-c(S-CH2-CH2-S)-[D-Cys-Aci-D-Pen]NH2] (H-[Dmt][dC][Aic][dPen]-NH2; linker 2-4 via CH2CH2; N-terminus assumed): the “DOR | % max.” value on DOR amounted to 37 ± 4 % max. At KOR, the “KOR | % max.” value is 3 ± 3 % max.
